Measured values published in PubChem BioAssay AID686978 (National Center for Advancing Translational Sciences (NCATS), 2013).
Where “and” joins values, the source holds several entries; their conditions need not be identical. Equal values may be shown once. The campaign covered roughly 420,000 compounds. About 64,000 (15%) were called active. The shares of active, inactive and inconclusive entries below differ from those in the screen. Calls come from the whole dose curve; as a rule, active = well fitted inhibition curve with a large enough effect; inconclusive = small, poorly fitted or top-dose-only effect; inactive = flat fitted curve, though single readings scatter. Where the call is inconclusive, the potency comes from a doubtful curve fit.

Experiment: qHTS for Inhibitors of human tyrosyl-DNA phosphodiesterase 1 (TDP1): qHTS in cells in absence of CPT; note: nearly all actives have a fitted effect of over 55% in size
Details: DT40 Tdp1-/- hTDP1 cells, no CPT, ATP luminescence, 48 h; activity change, negative = growth inhibition: at 46.2 µM (top of the series) unless noted
Procedure, shortened: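 Compound effects on proliferation are scored in DT40 Tdp1-/-;hTDP1 cells in the absence of CPT. ATP levels (CellTiter-Glo luminescence) are recorded after a ≥48 hr, 37 °C incubation.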
% is set by controls: 0 for no effect and ±100 for the full control effect; potency is the fitted concentration of half-maximal effect; tags give direction and shape of the fitted curve.

| SMILES | Potency | activity change, negative = growth inhibition |
| --- | --- | --- |
| C[C@H]1[C@@H](c2ccccc2)Oc2ccc(Cl)cc2S(=O)(=O)N1Cc1ccc(F)cc1F | inconclusive: 29.1 µM [inhibitor, single point] | – |
| COc1ccc(S(N)(=O)=O)cc1C(=O)NNC(=O)c1cccc(S(=O)(=O)N2CCOCC2)c1 | inconclusive: 16.4 µM [inhibitor, single point] | – |
| O=C(Cn1cnc2nc3c(cc2c1=O)CCCC3)N1CCN(c2cccc(C(F)(F)F)c2)CC1 | inconclusive: 20.6 µM [inhibitor, single point] | – |
| O=C(c1cc(-c2cccs2)nn1-c1ccccc1)N1CCN(S(=O)(=O)c2ccccc2)CC1 | active: 18.4 µM | – |
| Cc1ccc(-n2nc3ccc(N)cc3n2)c(C)c1 | inconclusive: 29.1 µM [inhibitor, single point] | – |
| CN1C[C@@H]2C[C@H]1CN2c1cc2c(cc1F)c(=O)c(C(=O)O)cn2C1CC1 | active: 6.68 µM | – |
| CC(=O)Nc1ccc(C(=O)N(C2=NC(C)CS2)c2ccc(Cl)cc2)cc1 (stereo unspecified) | inconclusive: 6.51 µM [inhibitor, partial curve] | – |
| O=C(CCC(=O)c1cccs1)NCc1ccc(Cl)cc1 | inactive | – |
| O=NN(CCF)C(=O)NC1CCS(=O)(=O)CC1 | inconclusive: 9.2 µM [inhibitor, partial curve] | – |
| COc1ccc(S(=O)(=O)N2CCCC2CNC(=O)C(=O)NC2CCCCCC2)cc1 (stereo unspecified) | inconclusive: 23.1 µM [inhibitor, single point] | – |
| COc1ccc(S(=O)(=O)N(C)CC(=O)Nc2ccc3c(c2)OCCO3)cc1OC | inconclusive: 18.4 µM [inhibitor, single point] | – |
| O=C(NC1CCN(Cc2ccccc2)CC1)C1CCCN(c2nnc(-n3cccc3)s2)C1 (stereo unspecified) | inconclusive: 16.4 µM [inhibitor, partial curve] | – |
| O=C(COC(=O)C12CC3CC(CC(C3)C1)C2)NCCCc1ccccc1 | inactive | – |
| CC(C)N(C(=O)[C@H]1CC(CC(=O)NCCC2=CCCCC2)C(=O)N2CCc3c([nH]c4ccccc34)[C@]12C)C(C)C (stereo partly specified) | inconclusive: 25.9 µM [inhibitor, single point] | – |
| CCc1ccc(NC(=O)Cn2ccn(-c3ccc(OC)cc3)c(=O)c2=O)cc1 | inactive | – |
| Cc1ccc(N(C)C(=O)CC(C)S(=O)(=O)c2ccc3c(c2)NC(=O)CO3)cc1 (stereo unspecified) | inconclusive: 6.51 µM [inhibitor, full curve] | – |
| Cc1[nH]c2ccccc2c1C(=O)COC(=O)c1c(-c2ccccc2)noc1C | inconclusive: 29.1 µM [inhibitor, single point] | – |
| CC(=O)c1ccc(S(=O)(=O)Nc2ccc(-c3ccc(N4CCCCC4)nn3)cc2)cc1 | inactive | – |
| COc1ccc(Cn2c(C(=O)O)c(CNC3CCCC3)c3ccc(C)cc32)cc1 | inactive | – |
| COc1ccc(CCNC(=O)c2csc3c2CCCCC3)c(OC)c1 | inconclusive: 6.51 µM [inhibitor, full curve] | – |
| CN(C)c1ncc2nc(-c3ccccc3)c(=O)n(CCc3ccccc3)c2n1 | inactive | – |
| CC(C)(C)NC(=O)C(c1ccc(O)cc1)N(Cc1ccc2c(c1)OCO2)C(=O)CCl (stereo unspecified) | inconclusive: 20.6 µM [inhibitor, single point] | – |
| Cc1ccccc1C(=O)NCC(=O)Nc1ccc(C)c(S(=O)(=O)N2CCCCCC2)c1 | inconclusive: 29.1 µM [inhibitor, single point] | – |
| CCCCCc1c(Cc2ccccc2)ncn1CCc1ccccc1OC | active: 2.59 µM | – |

| SMILES | Potency | activity change, negative = growth inhibition |
| --- | --- | --- |
| CCOc1ccc2nc(N3CCCN(CCCn4cccn4)CC3)nc(C)c2c1 | inconclusive: 29.1 µM [inhibitor, single point] | – |
| O=C(NCCCN=C1NS(=O)(=O)c2ccccc21)c1ccc(F)cc1 | inactive | – |
| CCC(=O)N1c2ccccc2CC1C(=O)N1CCN(c2cccc(OC)c2)CC1 (stereo unspecified) | inconclusive: 25.9 µM [inhibitor, single point] | – |
| COc1ccccc1N(CC(=O)NC1CCCC1)C(=O)C1(C)CC(=O)N=C2C=CC(C)=CN21 (stereo unspecified) | inactive | – |
| CN(C)S(=O)(=O)c1cccc(NC(=O)COC(=O)COc2ccc(Br)cc2)c1 | inconclusive: 29.1 µM [inhibitor, single point] | – |
| CC(=O)OC1CCC2(C)C(CCC3C2CC(=O)C2(C)C3CC(C3CCCC3=O)C2C(C)=O)C1 (stereo unspecified) | – | inconclusive: -30.1% [inhibitor] |
| CCCn1c(NCc2ccc(C)o2)nc2ccccc21 | inconclusive: 29.1 µM [inhibitor, single point] | – |
| COc1ccccc1NC1=C(Cl)C(=O)N(c2ccccc2)C1=O | inactive | – |
| O=C(CSc1nc2ccccc2[nH]1)N1CCN(c2ccc(F)cc2)CC1 | inconclusive: 18.4 µM [inhibitor, single point] | – |
| COC(=O)c1cc2oc(C)cc2n1Cc1cc(C)ccc1C | inconclusive: 29.1 µM [inhibitor, single point] | – |
| C=CCNC(=O)C1CC(=O)N(c2ccc(C)cc2)C1 (stereo unspecified) | inactive | – |
| Cc1cccc(NC(=O)CC2Nc3cccc4cccc(c34)NC2=O)c1 (stereo unspecified) | inconclusive: 29.1 µM [inhibitor, single point] and inconclusive: 25.9 µM [inhibitor, single point] | – |
| N#CC1=C(N)SC(N)=C(C#N)C1c1ccc([N+](=O)[O-])cc1 | inconclusive: 29.1 µM [inhibitor, single point] | – |
| Cc1cc(-c2ccc(C(C)C)c(S(=O)(=O)N3CCOc4ccccc43)c2)on1 | active: 18.4 µM | – |
| Cc1cccc(NC(=O)c2cc3c(=O)n4ccccc4nc3s2)c1 | inconclusive: 18.4 µM [inhibitor, partial curve, poor fit] | – |
| COc1cc(-c2nnc(COc3ccc4cc(Br)ccc4c3)o2)cc(OC)c1OC | active: 20.6 µM | – |
| O=C(O)C(Cc1ccccc1)N1C(=O)C2C3CCC(C3)C2C1=O (stereo unspecified) | inactive | – |
| COc1ccccc1N1CCN(C(=O)CSc2nc(-c3ccccc3)cc(=O)[nH]2)CC1 | inconclusive: 23.1 µM [inhibitor, single point] | – |
| O=c1[nH]cnc2c([N+](=O)[O-])cccc12 | inactive | – |
| COc1ccc(CNc2ccc(Cl)cc2)cc1Cn1ccnc1 | active: 16.4 µM | – |
| CC[C@]12c3[nH]c4ccc(OC)cc4c3CCN1C(=O)C(CC(=O)NCc1ccc(OC)c(OC)c1)C[C@@H]2C(=O)N1CCN(C(=O)C2CC2)CC1 (stereo partly specified) | inactive | – |
| C/C(=N\Nc1nc(C)cc(C)n1)c1ccc(N2CCOCC2)cc1 | inconclusive: 25.9 µM [inhibitor, single point] | – |
| COC(=O)[C@@]1(Cc2ccc(F)cc2)[C@H]2c3cc(C(=O)N4CCCC4)n(Cc4ccc(Cl)c(C(F)(F)F)c4)c3C[C@H]2CN1C(=O)c1ccccc1 | active: 20.6 µM | – |
| CCCCNC(=O)c1onc(CSc2ccccc2CC)c1C(=O)O | inconclusive: 16.4 µM [inhibitor, single point] | – |

| SMILES | Potency | activity change, negative = growth inhibition |
| --- | --- | --- |
| CCOc1ccc(NC(=O)CSc2nc(-c3cccc(Cl)c3)nc3c2Cc2c(CO)cnc(C)c2O3)cc1 | inactive | – |
| Cc1ccc(-c2nnc(SCC(=O)NCCN3C(=O)CSC3=O)n2C)cc1 | inactive | – |
| CCc1nc(NCC2CCCO2)c2oc3ccccc3c2n1 (stereo unspecified) | inconclusive: 29.1 µM [inhibitor, single point] | – |
| CCN(CC(=O)Nc1ccc(NC(C)=O)cc1)CC(=O)Nc1cccc(Cl)c1 | inconclusive: 0.517 µM [inhibitor, partial curve] | – |
| Cc1cc(/C=C2/C(=O)N(C)C(=S)N2C)c(C)n1C1CC1 | inconclusive: 29.1 µM [inhibitor, single point] | – |
| COc1cccc(OCCCN2CCCCCC2)c1 | inactive | – |
| COC(=O)CC1C(=O)NCCN1C(=O)c1ccc([N+](=O)[O-])cc1 (stereo unspecified) | inactive | – |
| CC(=O)OC1COC(N2CCc3cc(Br)c([N+](=O)[O-])cc32)C(OC(C)=O)C1OC(C)=O (stereo unspecified) | inconclusive: 25.9 µM [inhibitor, partial curve] | – |
| Cc1ccc(C)c(NC(=O)Cn2ncc3c([nH]c4ccccc43)c2=O)c1 | inactive | – |
| COc1ccc([N+](=O)[O-])cc1C(=O)NC1CCN(Cc2ccccc2)CC1 | inactive | – |
| CN(C)c1ccc(C(C(=O)NCC2CCCO2)N(Cc2ccccc2)C(=O)c2snc(C(N)=O)c2N)cc1 (stereo unspecified) | active: 18.4 µM | – |
| O=C(N/N=C\C=C\c1ccc2c(c1)OCO2)c1ccc(F)cc1 | inactive | – |
| Cc1ccccc1NC(=O)Cc1nnc(SCC(=O)NC2CCCCC2)n1C | inconclusive: 29.1 µM [inhibitor, single point] | – |
| COCCN(Cc1ccco1)C(=O)Cn1ncc2c([nH]c3ccccc32)c1=O | inconclusive: 29.1 µM [inhibitor, single point] | – |
| CCCCN1C(=O)CN(C2CCCCCC2)C(=O)C1c1ccc(OCC)c(OC)c1 (stereo unspecified) | inconclusive: 20.6 µM [inhibitor, single point] | – |
| COc1cc2nc(CC(C)C)n(NC(=O)c3ccccc3)c(=O)c2cc1OC | inactive | – |
| Cc1ccc(C(=O)NCC(=O)NCC(=O)OCc2ccc(Oc3ccc([N+](=O)[O-])cc3)cc2)cc1 | active: 20.6 µM | – |
| CCN(CC)S(=O)(=O)c1cc(NC(=O)Cc2ccc(S(=O)(=O)N3CCOCC3)s2)ccc1Cl | active: 13 µM | – |
| Cc1ccc(CSCCNS(C)(=O)=O)cc1 | inactive | – |
| Cc1nc2n[nH]c(N)c2nc1C | inactive | – |
| COc1cccc(NC(=O)C2CC(=O)N/C(=N/NC(=O)c3ccc(C)cc3)S2)c1 (stereo unspecified) | inactive | – |
| CCc1cc2c(=O)n3c(nc2s1)-c1[nH]c2ccc(OC)cc2c1CC3 | inconclusive: 20.6 µM [inhibitor, single point] | – |
| COc1ccccc1OCCN1C(=O)S/C(=C\c2ccco2)C1=O | inconclusive: 29.1 µM [inhibitor, single point] | – |
